Results taken from a collection of fitness landscapes (doi:10.1016/j.celrep.2020.107928).
Over roughly 81,000 sequences, “one-hybrid fitness for binding parS DNA” has its median near -0.17; the highest 2% begin near 0.51. The list shows a part of the results.

B1: Caulobacter ParB omega fusion; a variant is named by its letters at X, in order, B8GW30 (parent)
chain: MESVVVGEPGMSEGRRGLGRGLSALLGEVDAAPAQAPGEQLGGSREAPIEILQRNPDQPRRTFREEDLEDLSNSIREKGVLQPILVRPSPDTAGEYQIVAGERAWRAAQRAGLKTVPIMVRELDDLAVLEIGIIENVQRADLNVLEEALSYKVLMEKFERTQENIAQTIGKSXSHVANXMRLLXLPDEVQSYLVSGELTAXHARAIAAAADPVALAKQIIEGGLSVRETEALARKAPNLSAGKSKGGRPPRVKDTDTQALESDLSSVLGLDVSIDHRGSTGTLTITYATLEQLDDLCNRLTRGI

Variants of: B1
Test: one-hybrid fitness for binding parS DNA (scaled: cognate 1, non-cognate 0); higher = stronger binding
Details: with parS DNA site
Method in brief: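 Fitness here means the log change in variant-to-wild-type read ratio between plasmids sequenced before and after selection. That scale was set so cognate equals 1 and non-cognate equals 0. The selection was a bacterial one-hybrid screen of Caulobacter ParB libraries, four specificity codons randomised, in E. coli USO carrying a HIS3 reporter with the site 19 bp from the promoter, grown 48 hours at 37°C on M9-minus-histidine with 0.1 mM IPTG and 5 mM 3-AT.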

Variant	one-hybrid fitness for binding parS DNA
MPCI	≤ 0.2
TAAC	≤ 0.2
PCMY	≤ 0.2
AEIG	≤ 0.2
LRNF	≤ 0.2
AYWC	≤ 0.2
IHGV	≤ 0.2
NFPA	≤ 0.2
TGES	≤ 0.2
MLPR	≤ 0.2
RCWE	≤ 0.2
AKKR	≤ 0.2
NIVP	≤ 0.2
PYVY	≤ 0.2
ELIR	≤ 0.2
CSKR	≤ 0.2
YRVE	≤ 0.2
AYSY	≤ 0.2
IIGR	≤ 0.2
DGRG	≤ 0.2
ISAD	≤ 0.2
MANS	≤ 0.2
QRHT	≤ 0.2
KLTK	≤ 0.2

Variant	one-hybrid fitness for binding parS DNA
LQQC	≤ 0.2
RRCF	≤ 0.2
QSEF	≤ 0.2
CTDL	≤ 0.2
KWSH	≤ 0.2
LMAV	≤ 0.2
LRGE	≤ 0.2
CNWR	≤ 0.2
HAFM	≤ 0.2
ELDG	≤ 0.2
NKDW	≤ 0.2
QVQL	≤ 0.2
PECS	≤ 0.2
DVQT	≤ 0.2
ELGT	≤ 0.2
PSSP	≤ 0.2
LPDA	≤ 0.2
RLTQ	≤ 0.2
SHMY	≤ 0.2
LPKM	≤ 0.2
KTTD	≤ 0.2
MVTC	≤ 0.2
TVDF	≤ 0.2
SRNR	≤ 0.2

Variant	one-hybrid fitness for binding parS DNA
LAHL	≤ 0.2
LYTP	≤ 0.2
PHPF	≤ 0.2
EHLC	≤ 0.2
AWTG	≤ 0.2
HAFC	≤ 0.2
RHHI	≤ 0.2
RHTV	≤ 0.2
TGQW	≤ 0.2
HCNR	≤ 0.2
LNAT	≤ 0.2
KINS	≤ 0.2
QWEV	≤ 0.2
MTIG	≤ 0.2
QPRL	≤ 0.2
REPM	≤ 0.2
EGTC	≤ 0.2
YPDC	≤ 0.2
ILGW	≤ 0.2
AINF	≤ 0.2
KAKN	≤ 0.2
HMST	≤ 0.2
RLKR	≤ 0.2
VFKT	≤ 0.2

Variant	one-hybrid fitness for binding parS DNA
WFNC	0.25
PSGF	≤ 0.2
YCVS	≤ 0.2
LMTY	≤ 0.2
WCLW	≤ 0.2
IYEG	≤ 0.2
LIEG	≤ 0.2
KCAV	≤ 0.2
VISV	≤ 0.2
GMQY	≤ 0.2
AGFG	≤ 0.2
QKKK	≤ 0.2
DIRC	≤ 0.2
YTED	≤ 0.2
QARY	≤ 0.2
THRE	≤ 0.2
MHAG	≤ 0.2
RAQC	0.987
VYAV	≤ 0.2
VQSR	≤ 0.2
YIAT	≤ 0.2
RIDW	≤ 0.2
SVRS	≤ 0.2
GTDI	≤ 0.2

Variant	one-hybrid fitness for binding parS DNA
WLLP	≤ 0.2
ELYK	≤ 0.2
SQAV	≤ 0.2
QKSC	≤ 0.2
AHLQ	≤ 0.2
MCIS	≤ 0.2
PHEV	≤ 0.2
TSPM	≤ 0.2
FMDG	≤ 0.2
WVEH	≤ 0.2
RYAW	≤ 0.2
TEPR	≤ 0.2
YQHR	≤ 0.2
AGHF	≤ 0.2
RPEH	≤ 0.2
PHKN	≤ 0.2
HLLR	≤ 0.2
LTHD	≤ 0.2
GSPV	≤ 0.2
RACM	0.328
FSLR	≤ 0.2
SIPK	≤ 0.2
HTMT	≤ 0.2
ETNI	≤ 0.2

Variant	one-hybrid fitness for binding parS DNA
QFCF	≤ 0.2
PTWH	≤ 0.2
RRFN	0.314
TNTY	≤ 0.2
LMRS	≤ 0.2
SQLT	≤ 0.2
IPGR	≤ 0.2
NHPS	≤ 0.2
AVRA	≤ 0.2
LPEP	≤ 0.2
TDAR	≤ 0.2
QEVG	≤ 0.2
PFPM	≤ 0.2
SCHP	≤ 0.2
HRLH	≤ 0.2
CSHE	≤ 0.2
NFML	≤ 0.2
PLYA	≤ 0.2
PSAK	≤ 0.2
FGKK	≤ 0.2
QRPQ	≤ 0.2
AFNF	≤ 0.2
LRAV	≤ 0.2
LTFT	≤ 0.2

Variant	one-hybrid fitness for binding parS DNA
NENS	≤ 0.2
DITA	≤ 0.2
VGTI	≤ 0.2
SRQY	≤ 0.2
FRDC	≤ 0.2
TDNQ	≤ 0.2
RCPF	≤ 0.2
RAAL	≤ 0.2
TTGR	≤ 0.2
QLHP	≤ 0.2
TGFD	≤ 0.2
PSAM	≤ 0.2
NHKY	≤ 0.2
CVYI	≤ 0.2
QYSL	≤ 0.2
FLIR	≤ 0.2
PCLL	≤ 0.2
PAHW	≤ 0.2
SFGL	≤ 0.2
DFYI	0.313
DRTM	≤ 0.2
IRMD	≤ 0.2
AQGE	≤ 0.2
DDMG	≤ 0.2

Variant	one-hybrid fitness for binding parS DNA
QEDI	≤ 0.2
NVYR	≤ 0.2
HQMC	≤ 0.2
LGPW	≤ 0.2
RNHG	0.866
AAFT	≤ 0.2
RTDI	≤ 0.2
MHLY	≤ 0.2
PGGC	≤ 0.2
KPLF	≤ 0.2
QDSF	≤ 0.2
SCNC	≤ 0.2
VCKT	≤ 0.2
PQFM	≤ 0.2
NLGT	≤ 0.2
CLMS	≤ 0.2
KNST	≤ 0.2
ATFD	≤ 0.2
CHTD	≤ 0.2
HGNR	≤ 0.2
VMHG	≤ 0.2
TPFY	≤ 0.2
EMEL	≤ 0.2
GPTP	≤ 0.2

Variant	one-hybrid fitness for binding parS DNA
EAGM	≤ 0.2
VQSD	0.28
LRDT	≤ 0.2
HNTS	≤ 0.2
RWMM	≤ 0.2
AACY	≤ 0.2
FKEG	≤ 0.2
ANHR	≤ 0.2
SDAS	≤ 0.2
HKMN	≤ 0.2
CFGG	≤ 0.2
VMYN	≤ 0.2
NQFG	≤ 0.2
DFAH	≤ 0.2
QRKK	≤ 0.2
EPTF	≤ 0.2
ERQT	≤ 0.2
ATNF	≤ 0.2
RDNY	≤ 0.2
RHSN	0.379
SSRF	≤ 0.2
RTNE	≤ 0.2
NGPF	≤ 0.2
WPFW	≤ 0.2

Variant	one-hybrid fitness for binding parS DNA
PNNF	≤ 0.2
QQCE	≤ 0.2
QDGM	≤ 0.2
IGTI	≤ 0.2
GIMG	≤ 0.2
MFKL	≤ 0.2
LQTW	≤ 0.2
RMFP	≤ 0.2
PARL	≤ 0.2
HEWS	≤ 0.2
RLQH	0.324
VQWW	≤ 0.2
KTIF	≤ 0.2
RGCN	≤ 0.2
SKTN	≤ 0.2
TESI	≤ 0.2
VSHD	≤ 0.2
VADY	≤ 0.2
WGYT	≤ 0.2
ERYS	≤ 0.2
HAPG	≤ 0.2
QRHN	≤ 0.2
HGGS	≤ 0.2
VGGC	≤ 0.2

Variant	one-hybrid fitness for binding parS DNA
FLLR	≤ 0.2
PYGC	≤ 0.2
RMMF	0.247
RRFA	0.806
PFEA	≤ 0.2
LYSY	≤ 0.2
ACTT	≤ 0.2
QYRL	≤ 0.2
QIAW	≤ 0.2
YRPA	≤ 0.2
HHWN	≤ 0.2
WSKE	≤ 0.2
LYQR	≤ 0.2
PHNF	≤ 0.2
AEGT	≤ 0.2
CCRD	≤ 0.2
WAWS	≤ 0.2
APRS	≤ 0.2
LYAC	≤ 0.2
KWCC	≤ 0.2
EAAN	≤ 0.2
QCSI	≤ 0.2
YPNF	≤ 0.2
KKRY	≤ 0.2

Variant	one-hybrid fitness for binding parS DNA
QFHA	≤ 0.2
MVSY	≤ 0.2
KSNL	≤ 0.2
SHYD	≤ 0.2
RWDR	≤ 0.2
SDMY	≤ 0.2
TFSF	≤ 0.2
KSSM	≤ 0.2
SFAR	≤ 0.2
EHQL	≤ 0.2
ETDG	≤ 0.2
SNLT	≤ 0.2
NTFH	≤ 0.2
MSLM	≤ 0.2
HVQS	≤ 0.2
LGPC	≤ 0.2
YFDS	≤ 0.2
QSWI	≤ 0.2
KNWD	≤ 0.2
SLDK	≤ 0.2
ECLV	≤ 0.2
KTCS	≤ 0.2
QPTD	≤ 0.2
IAMH	≤ 0.2

Variant	one-hybrid fitness for binding parS DNA
NLGM	≤ 0.2
WGLC	≤ 0.2
RYAD	≤ 0.2
MGGQ	≤ 0.2
YTWF	≤ 0.2
HLVA	≤ 0.2
HGKV	≤ 0.2
LCKK	≤ 0.2
IRKH	0.213
KSWV	≤ 0.2
QAYR	≤ 0.2
CFDS	≤ 0.2
CICR	≤ 0.2
AKRA	≤ 0.2
PLSP	≤ 0.2
ACYG	≤ 0.2
KWTI	≤ 0.2
LWNC	≤ 0.2
